Screen size: about 370,000 compounds; about 150 (0.041%) were called active. The shares of active, inactive and inconclusive entries below differ from those in the screen. The call rests on the fitted dose curve; in most records, active means well fitted inhibition curve with a large enough effect; inconclusive means small, poorly fitted or top-dose-only effect; inactive means flat fitted curve, though single readings scatter. No potency is given beside an inconclusive call; the fits are too rough.
What follows are molecules tested against Beta-lactamase (Escherichia coli (strain K12)) (UniProt P00811) (assay: qHTS Inhibitors of AmpC Beta-Lactamase (assay with detergent)). Details: AmpC hydrolysis of nitrocefin, absorbance 480 nm, 0.01% Triton; activity change, negative = inhibition: at 114 µM (top of the series).
How it was run: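 20 mM phosphate pH 7.0 + 0.01% (detergent screen) or 0.0001% Triton X-100; 5.3 nM AmpC reagent; cpd preinc 15 min RT; nitrocefin (800 uM stock) to start; A480 q20 s × 4 min; Activity was normalised to no-enzyme and no-compound control wells.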
Further: nearly all actives have a fitted effect of over 25% in size.
Potency means the concentration at half of the fitted maximal effect; tags describe the fitted curve by direction and shape.
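Wherever activity change, negative = inhibition is given: 0% = no-compound wells and -100% = no-enzyme wells.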

UniProt P00811, sequence (P00811 whole entry, looked up): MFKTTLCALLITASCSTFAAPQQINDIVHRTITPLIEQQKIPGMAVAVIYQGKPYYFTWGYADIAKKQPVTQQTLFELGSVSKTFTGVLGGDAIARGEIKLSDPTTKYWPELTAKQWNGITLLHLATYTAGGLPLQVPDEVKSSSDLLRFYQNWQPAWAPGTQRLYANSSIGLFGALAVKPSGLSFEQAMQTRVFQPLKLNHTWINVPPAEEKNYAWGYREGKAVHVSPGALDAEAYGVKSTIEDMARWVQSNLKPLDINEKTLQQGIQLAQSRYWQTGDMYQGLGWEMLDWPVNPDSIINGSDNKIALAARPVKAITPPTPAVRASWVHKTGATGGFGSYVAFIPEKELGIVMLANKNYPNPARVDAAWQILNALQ

Compound	activity change, negative = inhibition	Potency
CCc1ccccc1N(C(=O)CNC(=O)c1ccco1)C(C(=O)NC1CCCC1)c1cccnc1 (configuration not stated)	inactive: -0.0593%	–
COc1ccccc1OCC(=O)Nn1c(=S)[nH]c2ncccc2c1=O	–	inconclusive [inhibitor, single point]
COCCNc1nc(SCc2ccccc2)nc2sc3c(c12)CCC3	inactive: 4.73%	–
COc1ccc(C(=O)NCC(=O)OC2CCCCC2=O)cc1 (configuration not stated)	–	inconclusive [inhibitor, partial curve, poor fit]
COc1ccccc1CNS(=O)(=O)c1cccc(S(=O)(=O)N2CCOCC2)c1	inactive: -14.5%	–
O=C(/C=C/c1ccccc1F)c1ccoc1	–	inconclusive [inhibitor, single point]
CC(=O)c1ccc(N2CCN(C(=O)c3ccc(C(=O)c4ccccc4)cc3)CC2)cc1	–	inconclusive [inhibitor, partial curve, poor fit]
COC(=O)c1ccc(-c2nn(C)c(=O)c3ccccc23)cc1	–	inconclusive [inhibitor, full curve]
COc1ccc(-n2nc(C(=O)O)nc2-c2ccccc2)cc1	–	inconclusive [inhibitor, single point]
O=C(NCc1ccco1)c1nnc(Cc2ccc(Cl)cc2)o1	–	inconclusive [inhibitor, single point]
CC1=C(C(=O)OCc2ccccc2)C(/C=C/c2ccccc2)NC(=S)N1 (configuration not stated)	–	inconclusive [inhibitor, partial curve, poor fit]
CC(C)CCNC(=O)C(=O)NC1CCCC1	–	inconclusive [inhibitor, full curve, poor fit]
CC(=O)Nc1ccc(SCC(=O)OCC(=O)NC(=O)NCCC(C)C)cc1	–	inconclusive [inhibitor, full curve, poor fit]
Cc1ccc(-n2ncc3c(=O)[nH]c(SCC(=O)N4CCCC4)nc32)cc1C	–	inconclusive [inhibitor, full curve, poor fit]
Cc1cc(NC(=O)CN2C(=O)C3CC=CCC3C2=O)no1 (configuration not stated)	–	inconclusive [inhibitor, full curve, poor fit]
COc1ccc(NC(=O)C2c3cc(OC)c(OC)cc3C(=O)N(C)C2c2cccnc2)cc1OC (configuration not stated)	–	inconclusive [inhibitor, partial curve, poor fit]
O=C(c1ccc2c(c1)OCO2)N1CCC2(CC1)OCCO2	–	inconclusive [inhibitor, full curve]
C/C(=N\NC(=O)C1CC1)c1ccccc1O	–	inconclusive [inhibitor, full curve, poor fit]
Cc1csc(CN(C)C(=O)CC2C(=O)NCCN2Cc2ccc(Cl)c(F)c2)n1 (configuration not stated)	inactive: -4.42%	–
COc1ccccc1-n1ccnc(SCC(=O)NCCc2ccccc2)c1=O	–	inconclusive [inhibitor, partial curve]
N#C/C(=C\c1ccc(C(=O)O)cc1)c1ccccn1	inactive: 2.8%	–
Cc1cccc2cc3c(N)c(C(=O)N4CCCc5ccccc54)sc3nc12	–	inconclusive [inhibitor, full curve, poor fit]
O=C(CN1C(=O)S/C(=C\c2ccccc2)C1=O)NNC(=O)c1ccccc1O	–	inconclusive [inhibitor, single point]

Compound	activity change, negative = inhibition	Potency
Cc1ccc2cccc(OCC(=O)N3CC(C)CC(C)C3)c2n1 (configuration not stated)	–	inconclusive [inhibitor, partial curve]
COc1ccc(C(=O)Nc2cc(S(=O)(=O)N3CCCCC3)ccc2OC)cc1	–	inconclusive [inhibitor, single point]
CCn1ccnc1CC1COc2ccccc2O1 (configuration not stated)	–	inconclusive [inhibitor, partial curve, poor fit]
O=C(OC(C(=O)NCc1ccc2c(c1)OCO2)c1ccc(Cl)cc1)c1ccco1 (configuration not stated)	–	inconclusive [inhibitor, full curve, poor fit]
COC(=O)CSc1nc(N)c2c3c(sc2n1)C(c1ccccc1)SC(c1ccccc1)C3 (configuration not stated)	–	inconclusive [inhibitor, full curve, poor fit]
COc1ccc(Cl)cc1S(=O)(=O)N1CCC(C(=O)NCCc2ccccc2)CC1	–	inconclusive [inhibitor, single point]
Cc1cccc(CN2CCN(C(=O)c3cccc4ccccc34)CC2)c1	–	inconclusive [inhibitor, partial curve]
O=C(c1ccc2c(c1)OCO2)N(c1ccc(Cl)cc1)C1C=CS(=O)(=O)C1 (configuration not stated)	–	inconclusive [inhibitor, full curve, poor fit]
CC1CN(C(=O)CCC(=O)NCc2ccccn2)c2ccccc2O1 (configuration not stated)	–	inconclusive [inhibitor, full curve]
Cc1cccc(C(=O)Nc2cccc(C(=O)N/N=C/c3ccncc3)c2)c1	inactive: -2.29%	–
CC(=O)Nc1ccccc1C(F)(F)F	inactive: 3.67%	–
CCCNC(=O)N1CCC(c2ccc3c(c2)OCO3)CC1	–	inconclusive [inhibitor, full curve]
CCC(=O)N1CCN(c2ccc(Cl)cc2NC(=O)c2ccc(N3CCCC3)c([N+](=O)[O-])c2)CC1	–	inconclusive [inhibitor, partial curve, poor fit]
Cc1c(C(=O)O)oc2c1ccc1ccccc12	–	inconclusive [inhibitor, full curve, poor fit]
COC(=O)c1ccccc1NC(=O)C(C)c1ccc([N+](=O)[O-])cc1 (configuration not stated)	–	inconclusive [inhibitor, single point]
Nc1ccc(C(=O)Nc2ccc3nc(-c4cccnc4)[nH]c3c2)cc1	–	inconclusive [inhibitor, single point]
O=C1/C(=C/c2ccc(C(=O)O)cc2)CCC/C1=C\c1ccc(C(=O)O)cc1	inactive: 1.42%	–
Cn1c(=O)n(C)c2cc(NC(=O)c3ccc(F)cc3)c(Br)cc21	inactive: -8.41%	–
COc1ccc(C2C(C#N)=C(N)N(c3cccnc3)C3=C2C(=O)CC(C)(C)C3)cc1OC (configuration not stated)	–	inconclusive [inhibitor, full curve, poor fit]
O=C(CSc1n[nH]c(-c2ccncc2)n1)Nc1ccccc1Cl	–	inconclusive [inhibitor, full curve, poor fit]
CNC(=O)CN1C(=O)c2ccccc2S1(=O)=O	–	inconclusive [inhibitor, partial curve]
O=C(N/N=C/c1ccccc1Br)c1ccc(CSc2cccc3cccnc23)cc1	–	inconclusive [inhibitor, full curve, poor fit]
CCCN(CC1CC1)c1nc(N)c2c(N)nc(OC)cc2c1C#N	–	inconclusive [inhibitor, single point]

Compound	activity change, negative = inhibition	Potency
COc1ccc(C)cc1S(=O)(=O)NCC(c1ccc2c(c1)OCO2)N1CCOCC1 (configuration not stated)	–	inconclusive [inhibitor, partial curve, poor fit]
CCOc1ccc(NC(=O)Cn2c(=O)oc3cc(S(=O)(=O)N4CCC(C)CC4)ccc32)cc1	–	inconclusive [inhibitor, single point]
CCCNC(=O)CS(=O)Cc1nc(-c2cccc(OC)c2)oc1C (configuration not stated)	–	inconclusive [inhibitor, partial curve]
O=C(c1ccc(Cl)cc1)c1ccc(OCC(O)CN2CCCCC2)cc1 (configuration not stated)	–	inconclusive [inhibitor, single point]
CC(C)(C)c1ccc(/C=N/N2CCN(c3ccccn3)CC2)cc1	inactive: -2.52%	–
O=C(c1cccs1)N1CCN(CCCc2ccccc2)CC1	–	inconclusive [inhibitor, full curve]
O=C(O)c1ccc(COc2ccc(Cl)cc2)o1	inactive: -8.93%	–
Cc1cc(C(=O)Cn2nnc3ccccc3c2=O)c(C)n1Cc1cccs1	–	inconclusive [inhibitor, partial curve]
Cc1ccccc1Nc1nc(N)nc(COC(=O)C2CCCCC2)n1	inactive: -1.57%	–
O=C1C2CSCN2C(=O)CN1CCCN1CCN(C(c2ccccc2)c2ccccc2)CC1 (configuration not stated)	inactive: -9.23%	–
CCCCNC(=O)c1cc(-c2ccc(OC)cc2)on1	–	inconclusive [inhibitor, full curve, poor fit]
O=C(Nc1cccnc1)c1ccc(Cl)c([N+](=O)[O-])c1	–	inconclusive [inhibitor, partial curve, poor fit]
O=C(COc1ccccc1-c1ccccc1)NNC(=O)NC1CCCCC1	–	inconclusive [inhibitor, full curve, poor fit]
Cc1[nH]c(C(=O)O)c(C)c1C(=O)OC(C)C	–	inconclusive [inhibitor, full curve, poor fit]
CCOc1ccc2nc(NC(=O)Cn3c(C)csc3=O)sc2c1	inactive: -1.41%	–
CC1CCCCC1NC(=O)c1cc2ccccc2o1 (configuration not stated)	inactive: -15.9%	–
CCCS(=O)(=O)N1CCCC(c2nc(-c3cccc(OC)c3)no2)C1 (configuration not stated)	–	inconclusive [inhibitor, partial curve, poor fit]
Cc1ccc(NC(=O)COC(=O)c2c[nH]c3ccccc23)cc1C	–	inconclusive [inhibitor, full curve, poor fit]
CCCOC1CCCN(C(=O)c2cc(COc3ccc(-n4cncn4)cc3)on2)C1 (configuration not stated)	inactive: -1.77%	–
COc1ccc(C2N3CC4(C)CN2CC(c2ccccc2)(C3)C4=O)cc1 (configuration not stated)	inactive: 9.02%	–
O=C(Nc1ccc(Cl)cc1)Nc1nccs1	–	inconclusive [inhibitor, full curve, poor fit]

Source: PubChem BioAssay AID485294 (National Center for Advancing Translational Sciences (NCATS), 2010)
